{
  "source": "the BET-seq Pho4 binding data (Le et al. 2018)",
  "note": "Some of the results follow. The energies were worked out here from pooled read counts, against the library average; single values are noisy.",
  "data": [
    {"target": "T1, Pho4 (S. cerevisiae) (UniProt P07270)", "T1 sequence": "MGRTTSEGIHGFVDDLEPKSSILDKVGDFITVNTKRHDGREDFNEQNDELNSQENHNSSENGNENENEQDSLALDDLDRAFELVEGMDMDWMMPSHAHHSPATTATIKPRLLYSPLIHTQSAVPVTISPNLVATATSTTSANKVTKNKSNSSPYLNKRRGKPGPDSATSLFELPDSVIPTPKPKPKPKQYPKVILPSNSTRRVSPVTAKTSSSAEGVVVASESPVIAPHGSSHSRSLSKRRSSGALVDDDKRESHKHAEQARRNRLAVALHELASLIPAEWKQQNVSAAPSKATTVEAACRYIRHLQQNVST", "assay": "relative binding free energy (BET-seq); higher = weaker binding", "conditions": "reference: library average", "units": {"relative binding free energy": "kcal/mol"}, "values": [
      {"sequence": "TGTGACACGTGGCTTG", "relative binding free energy": 0.02},
      {"sequence": "TATGGCACGTGATATC", "relative binding free energy": 0},
      {"sequence": "GTTTACACGTGGGGTG", "relative binding free energy": 0.03},
      {"sequence": "TGTGCCACGTGTTGCA", "relative binding free energy": -0.05},
      {"sequence": "GGGGTCACGTGGGTGA", "relative binding free energy": 0.06},
      {"sequence": "TGATGCACGTGCGCGT", "relative binding free energy": -0.11},
      {"sequence": "GCGTTCACGTGGTGGG", "relative binding free energy": 0.22},
      {"sequence": "CATGCCACGTGTGGGG", "relative binding free energy": -0.23},
      {"sequence": "GCTGTCACGTGGGGGT", "relative binding free energy": 0.03},
      {"sequence": "GGTGCCACGTGGAAGG", "relative binding free energy": 0.03},
      {"sequence": "CAAAGCACGTGTTGGT", "relative binding free energy": 0.09},
      {"sequence": "AGTATCACGTGGCGGT", "relative binding free energy": 0.18},
      {"sequence": "TGGGACACGTGTGCTT", "relative binding free energy": 0.01},
      {"sequence": "GTTTACACGTGGTGGA", "relative binding free energy": 0.08},
      {"sequence": "TTTTACACGTGGCTGA", "relative binding free energy": 0.06},
      {"sequence": "AGGGCCACGTGGGCCG", "relative binding free energy": -0.25},
      {"sequence": "TCTTGCACGTGGTTGA", "relative binding free energy": -0.08},
      {"sequence": "AAGTGCACGTGTGTGA", "relative binding free energy": -0.09},
      {"sequence": "GAGTACACGTGGGTTA", "relative binding free energy": 0},
      {"sequence": "GATTTCACGTGAGGGA", "relative binding free energy": 0.46},
      {"sequence": "CGTGGCACGTGGTGGC", "relative binding free energy": -0.06},
      {"sequence": "ATGCGCACGTGAGTAT", "relative binding free energy": 0.19},
      {"sequence": "AGGATCACGTGTGAAT", "relative binding free energy": 0.29},
      {"sequence": "CGGGGCACGTGGAGGT", "relative binding free energy": 0.03},
      {"sequence": "GGTTACACGTGTTGTC", "relative binding free energy": 0.19},
      {"sequence": "TTGCGCACGTGCGTTT", "relative binding free energy": -0.06},
      {"sequence": "TTGACCACGTGTAGGG", "relative binding free energy": 0.02},
      {"sequence": "GGGGCCACGTGGTGAT", "relative binding free energy": -0.26},
      {"sequence": "GCAGTCACGTGGGAGG", "relative binding free energy": -0.02},
      {"sequence": "ATGTTCACGTGGCCAG", "relative binding free energy": 0.33},
      {"sequence": "TGGGACACGTGGCGTG", "relative binding free energy": -0.13},
      {"sequence": "TGGTTCACGTGATTTT", "relative binding free energy": 0.41},
      {"sequence": "TTTAGCACGTGTATGG", "relative binding free energy": -0.05},
      {"sequence": "CGAGTCACGTGATTGG", "relative binding free energy": 0.01},
      {"sequence": "TGCTGCACGTGATTAG", "relative binding free energy": 0.11},
      {"sequence": "ATACGCACGTGTGTGA", "relative binding free energy": 0.08},
      {"sequence": "TAATTCACGTGATGTT", "relative binding free energy": 0.34},
      {"sequence": "TAGTACACGTGTAGAT", "relative binding free energy": 0.24},
      {"sequence": "AGTTTCACGTGAATGA", "relative binding free energy": 0.44},
      {"sequence": "TTACGCACGTGGATAT", "relative binding free energy": 0.03},
      {"sequence": "TTATTCACGTGGCTAG", "relative binding free energy": 0.15},
      {"sequence": "GAGTGCACGTGTTATG", "relative binding free energy": 0.04},
      {"sequence": "GTTGACACGTGTTATG", "relative binding free energy": 0.12},
      {"sequence": "TGTGACACGTGTTGGT", "relative binding free energy": 0.07},
      {"sequence": "TTGGACACGTGCTTAT", "relative binding free energy": -0.02},
      {"sequence": "GTAGTCACGTGGGACT", "relative binding free energy": -0.02},
      {"sequence": "GTGTGCACGTGCTGAT", "relative binding free energy": 0.04},
      {"sequence": "CTTGTCACGTGGATGG", "relative binding free energy": 0},
      {"sequence": "GGGTGCACGTGTTTGC", "relative binding free energy": 0.05},
      {"sequence": "GGTTTCACGTGGATGA", "relative binding free energy": 0.32},
      {"sequence": "TGCGTCACGTGCTGGT", "relative binding free energy": -0.08},
      {"sequence": "ATTGACACGTGTGGGG", "relative binding free energy": 0.07},
      {"sequence": "ATTGACACGTGAGAGG", "relative binding free energy": 0.16},
      {"sequence": "GGTTACACGTGGTGTG", "relative binding free energy": 0.2},
      {"sequence": "GGTAACACGTGGGTTA", "relative binding free energy": -0.11},
      {"sequence": "AGTGGCACGTGCAAAG", "relative binding free energy": -0.06},
      {"sequence": "TATTTCACGTGATTTG", "relative binding free energy": 0.45},
      {"sequence": "GGTGACACGTGCGGAT", "relative binding free energy": 0},
      {"sequence": "CTGTTCACGTGTGTCT", "relative binding free energy": 0.11},
      {"sequence": "TTCGTCACGTGTGGGT", "relative binding free energy": 0.03},
      {"sequence": "TAGTTCACGTGGGTTT", "relative binding free energy": 0.2},
      {"sequence": "GAGGACACGTGTTTAT", "relative binding free energy": 0.12},
      {"sequence": "AGGAACACGTGTATTT", "relative binding free energy": 0.03},
      {"sequence": "AAGAGCACGTGCGTGG", "relative binding free energy": -0.19},
      {"sequence": "TATTTCACGTGATTAA", "relative binding free energy": 0.42},
      {"sequence": "GTAGTCACGTGTCGGC", "relative binding free energy": 0.25},
      {"sequence": "AGTGCCACGTGAGCGT", "relative binding free energy": 0.01},
      {"sequence": "TGAGGCACGTGTAATG", "relative binding free energy": 0.05},
      {"sequence": "TGTTGCACGTGAAGTC", "relative binding free energy": 0.32},
      {"sequence": "CAGGGCACGTGTAGGG", "relative binding free energy": -0.13},
      {"sequence": "TCAATCACGTGTAGTT", "relative binding free energy": 0.12},
      {"sequence": "TGAAACACGTGTAGGG", "relative binding free energy": 0.04},
      {"sequence": "GAAAACACGTGGTGTT", "relative binding free energy": 0.02},
      {"sequence": "TTGTTCACGTGACGAT", "relative binding free energy": 0.36},
      {"sequence": "GATCACACGTGGGTGG", "relative binding free energy": -0.09},
      {"sequence": "TGTAGCACGTGCGTTA", "relative binding free energy": -0.08},
      {"sequence": "TCGTTCACGTGCTGTA", "relative binding free energy": 0.24},
      {"sequence": "CGATTCACGTGCGGTG", "relative binding free energy": 0.21},
      {"sequence": "CTCATCACGTGGGGGG", "relative binding free energy": -0.08},
      {"sequence": "TGAATCACGTGAAGTA", "relative binding free energy": 0.3},
      {"sequence": "GAGGCCACGTGTGAGG", "relative binding free energy": 0.15},
      {"sequence": "TATTACACGTGTAAAT", "relative binding free energy": 0.09},
      {"sequence": "TCAATCACGTGGTTGG", "relative binding free energy": 0.07},
      {"sequence": "ATGCTCACGTGAGGGC", "relative binding free energy": 0.38},
      {"sequence": "GGATGCACGTGTTATG", "relative binding free energy": -0.05},
      {"sequence": "GGGGGCACGTGTGATC", "relative binding free energy": -0.07},
      {"sequence": "GGGTTCACGTGGGAGG", "relative binding free energy": 0.37},
      {"sequence": "GAGGGCACGTGGCCGT", "relative binding free energy": -0.25},
      {"sequence": "AATGACACGTGAATTT", "relative binding free energy": 0.39},
      {"sequence": "GCAAGCACGTGGCGGG", "relative binding free energy": -0.02},
      {"sequence": "CGTTGCACGTGAGATT", "relative binding free energy": 0.26},
      {"sequence": "AGATTCACGTGAAGTA", "relative binding free energy": 0.5},
      {"sequence": "ATTTACACGTGGGCGG", "relative binding free energy": -0.06},
      {"sequence": "ATAGACACGTGTAGTT", "relative binding free energy": 0.15},
      {"sequence": "TATTTCACGTGAGGCT", "relative binding free energy": 0.24},
      {"sequence": "CTCGTCACGTGGGTTT", "relative binding free energy": -0.12},
      {"sequence": "CGTTTCACGTGAAAGT", "relative binding free energy": 0.4},
      {"sequence": "CTGTTCACGTGTACGT", "relative binding free energy": 0.22},
      {"sequence": "GAGTGCACGTGGTCTG", "relative binding free energy": -0.13},
      {"sequence": "TATATCACGTGGTTCG", "relative binding free energy": 0.14},
      {"sequence": "TAAACCACGTGGGGGG", "relative binding free energy": -0.11},
      {"sequence": "TTTGGCACGTGTTGCA", "relative binding free energy": -0.07},
      {"sequence": "TTTATCACGTGGAACT", "relative binding free energy": 0.18},
      {"sequence": "TGAGTCACGTGGAGCG", "relative binding free energy": 0.21},
      {"sequence": "TTGTACACGTGCTTCG", "relative binding free energy": 0.08},
      {"sequence": "GCGGCCACGTGTGGGG", "relative binding free energy": 0.06},
      {"sequence": "GGCGGCACGTGTCGAG", "relative binding free energy": 0.03},
      {"sequence": "GTGAACACGTGCGTAG", "relative binding free energy": 0.08},
      {"sequence": "TTGTACACGTGTGCGT", "relative binding free energy": 0.11},
      {"sequence": "ACTGTCACGTGGTAGT", "relative binding free energy": -0.08},
      {"sequence": "AAGAACACGTGGGTCT", "relative binding free energy": 0.13},
      {"sequence": "CTTATCACGTGTATTG", "relative binding free energy": 0.14},
      {"sequence": "GTTTCCACGTGGGTGT", "relative binding free energy": 0},
      {"sequence": "AGGAACACGTGGATTG", "relative binding free energy": 0.09},
      {"sequence": "GCTTGCACGTGTTATT", "relative binding free energy": 0.1}
    ]}
  ]
}
